Laboratory results published in PubChem BioAssay AID686979 (National Center for Advancing Translational Sciences (NCATS), 2013).
Where “and” joins values, the source holds several entries; their conditions need not be identical. Identical values can stand only once. In all, about 420,000 compounds went through this assay and about 50,000 (12%) were called active. Inconclusive results, whose numbers are uncertain, are shown with a selection of clear calls. Calls come from the whole dose curve; as a rule, active = well fitted inhibition curve with a large enough effect; inconclusive = small, poorly fitted or top-dose-only effect; inactive = flat fitted curve, though single readings scatter. Potencies beside an inconclusive call are fits to weak or partial responses and may not hold up.
% is set by controls: 0 for no effect and ±100 for the full control effect; potency is the fitted concentration of half-maximal effect; tags give direction and shape of the fitted curve.

Test: qHTS for Inhibitors of human tyrosyl-DNA phosphodiesterase 1 (TDP1): qHTS in cells in presence of CPT; note: nearly all actives have a fitted effect of over 55% in size
Details: chicken DT40 Tdp1-/-;hTDP1 cells + 20 nM CPT, ATP luminescence, 48 h; activity change, negative = growth inhibition: at 46.2 µM (top of the series)
Procedure, shortened: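 Chicken DT40 Tdp1-/- cells stably complemented with human TDP1 were seeded at 400 cells/well in medium containing 20 nM camptothecin, exposed to pin-transferred compounds, and grown at 37 °C for at least 48 hr. Viability was read as ATP luminescence.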
For `CSc1ncccc1C(=O)OC(C)C(=O)Nc1cccc(S(=O)(=O)N2CCOCC2)c1` (stereo not given), the Potency was inconclusive: 29.1 µM [inhibitor, single point].
For `Cc1ccc(CNc2nc(NCc3ccccc3)nc3ccsc23)c(C)c1`, the Potency was active: 9.2 µM.
With `Cc1ccc(CCNC(=O)CCCn2c(=O)c3cccn3c3ccc(F)cc32)cc1` the Potency was inconclusive: 29.1 µM [inhibitor, single point].
In the case of `CCCCN(CC)CCCNC(=O)c1sc2nc3n(c(=O)c2c1C)CCCCC3`, the Potency is reported as inconclusive: 29.1 µM [inhibitor, single point].
With `O=c1c2sc3nc(N4CCOCC4)c4c(c3c2ncn1C(c1ccccc1)c1ccccc1)CCCC4` the Potency was inconclusive: 14.6 µM [inhibitor, single point].
In the case of `CCn1c(=O)n(CC)c2cc(NC(=O)CSc3ccc([N+](=O)[O-])cn3)ccc21`, the Potency is reported as inconclusive: 0.517 µM [inhibitor, full curve, poor fit].
With `COc1cc(Nc2ccn3nc(-c4ccccc4Cl)cc3n2)cc(OC)c1OC` the Potency was inconclusive: 29.1 µM [inhibitor, single point].
For `CCOC(=O)[C@]12CCCC=C1N(Cc1ccccc1)C(=O)[C@H](CC(=O)NCc1cccc3ccccc13)C2`, the Potency was active: 18.4 µM.
In the case of `COc1ccc(S(N)(=O)=O)cc1C(=O)OCCCOc1ccc(F)cc1`, the “activity change, negative = growth inhibition” value is reported as inactive: 1.08%.
With `COc1ccc(N2C(=O)CC(Sc3nccc(C)n3)C2=O)c(OC)c1` (stereo not given) the Potency was inconclusive: 32.6 µM [inhibitor, single point].
With `Cc1cc2c(cc(C(=O)OCC(=O)NC3CCCCC3)n2C)o1` the Potency was inconclusive: 29.1 µM [inhibitor, single point].
With `CCOC(=O)NC(NC(=S)Nc1ccccc1[N+](=O)[O-])C(Cl)(Cl)Cl` (stereo not given) the Potency was inconclusive: 32.6 µM [inhibitor, single point].
In the case of `O=C(NCC1Cc2cc(F)cc(-c3cnccn3)c2O1)C1COc2ccccc2O1` (stereo not given), the “activity change, negative = growth inhibition” value is reported as inactive: 16.4%.
In the case of `Cc1cc(C)c(NC(=O)/C=C\C(=O)O)c([N+](=O)[O-])c1`, the Potency is reported as inconclusive: 29.1 µM [inhibitor, single point].
With `CCOC(=O)C1=C(N)OC2=C(C(=O)CC(C)(C)C2)C1c1ccc(CC)s1` (stereo not given) the “activity change, negative = growth inhibition” value was inactive: 3.75%.
For `Clc1ccccc1/C=N/NC1=Nc2cccc3cccc1c23`, the Potency was inconclusive: 23.1 µM [inhibitor, single point].
In the case of `CCn1c2ccccc2c2cc(CNCc3ccc(OC)cc3OC)ccc21`, the Potency is reported as inconclusive: 18.4 µM [inhibitor, single point].
For `CNC(=S)Nc1cccc(-c2cnc3ccccc3n2)c1`, the Potency was inconclusive: 16.4 µM [inhibitor, single point].
With `CCc1ccccc1NC(=O)Cn1nc(C)c2nn(-c3ccc(Cl)cc3)c(C)c2c1=O` the Potency was inconclusive: 25.9 µM [inhibitor, single point].
In the case of `Cc1nnc(NC(=O)C(C)Sc2nncn2C)s1` (stereo not given), the “activity change, negative = growth inhibition” value is reported as inactive: -2.15%.
In the case of `NC(N)=NS(=O)(=O)c1ccc(N/C=C/C(=O)c2ccc(Cl)c(Cl)c2)cc1`, the Potency is reported as inconclusive: 23.1 µM [inhibitor, partial curve].
With `CC(C)Cn1c2ccccc2c2cc(C(=O)O)ccc21` the “activity change, negative = growth inhibition” value was inactive: -1.94%.
With `COc1ccc(CC(C)Nc2ccccc2F)cc1` (stereo not given) the “activity change, negative = growth inhibition” value was inactive: -6.74%.
In the case of `Cc1ccc(CN(C)C(=O)CN2C(=O)NC3(CCCc4ccccc43)C2=O)c(C)c1` (stereo not given), the Potency is reported as inconclusive: 29.1 µM [inhibitor, single point].
For `COc1cc2[nH]c(=O)n(CCCC(=O)N(C)Cc3ccccc3)c(=O)c2cc1OC`, the Potency was inconclusive: 29.1 µM [inhibitor, single point].
For `COCCn1c(CN2CCN(C(c3ccccc3)c3ccccc3)CC2)nc2c1c(=O)n(C)c(=O)n2C`, the Potency was inconclusive: 29.1 µM [inhibitor, single point].
For `CCOC(=O)C1(Cc2cccc(OC)c2)CCN(C/C=C/c2ccccc2)CC1`, the Potency was active: 16.4 µM.
For `CN(C)CCCNc1c2ccccc2nc2ccccc12`, the Potency was active: 2.91 µM.
In the case of `Cc1ccc(CNC(=O)c2ccc(N3CCC4(CC3)CC(c3ccccc3)=NO4)c(N)c2)cc1`, the Potency is reported as active: 2.59 µM.
With `O=C(O)C[C@H]1c2cc(C(F)(F)F)ccc2S(=O)(=O)N1Cc1ccccc1` the Potency was inconclusive: 22.4 µM [inhibitor, single point].
For `O=C(O)CSc1ccn(Cc2ccccc2)c1`, the Potency was inconclusive: 1.64 µM [inhibitor, full curve, poor fit].
In the case of `Cc1ccc(-n2nc(C(=O)N(C)c3ccccc3Cl)c3c4ccccc4n(C)c3c2=O)cc1`, the Potency is reported as active: 18.4 µM.
With `O=C(Nc1ccc(Cl)c(C(F)(F)F)c1)C1Cc2c(-c3ccccc3Oc3ccccc3)ccnc2O1` (stereo not given) the Potency was active: 18.4 µM.
For `CCOc1ncccc1C(=O)NCCN1C(=O)S/C(=C/c2cccs2)C1=O`, the Potency was inconclusive: 25.9 µM [inhibitor, single point].
In the case of `COC(=O)c1cc2occc2n1Cc1nc(-c2ccc(Cl)cc2)oc1C`, the Potency is reported as inconclusive: 16.4 µM [inhibitor, single point] and inconclusive: 25.9 µM [inhibitor, single point].
For `COc1ccc(NC(=O)C(Sc2nnc3ccccn23)c2ccccc2)cc1Cl` (stereo not given), the Potency was inconclusive: 29.1 µM [inhibitor, single point].
In the case of `Cc1nc(N2CCN(Cc3nc4ccccc4[nH]3)CC2)c2oc3ccccc3c2n1`, the Potency is reported as inconclusive: 25.9 µM [inhibitor, single point].
In the case of `Cc1ccc(NC(=O)Cn2cc(S(=O)(=O)Cc3ccccc3)c3ccccc32)cc1C`, the Potency is reported as inconclusive: 20.6 µM [inhibitor, single point].
For `C=CCc1cccc(/C=N/NC(=O)CNc2ccccc2OC)c1O`, the Potency was inconclusive: 20.6 µM [inhibitor, single point].
For `CC(C)CNS(=O)(=O)c1cc(C(=O)N2CC(C)OC(C)C2)c(Cl)cc1Cl` (stereo not given), the Potency was inconclusive: 23.1 µM [inhibitor, single point].
For `CCc1cnc(Nc2nc(C(N)Cc3ccc(F)cc3)cs2)nc1` (stereo not given), the Potency was active: 11.6 µM.
In the case of `C=CCNC(=S)N/N=C/c1ccc(C)c([N+](=O)[O-])c1`, the Potency is reported as active: 14.6 µM.
For `COc1ccccc1-c1c(C)[nH]n2c(=O)c(Cc3ccccc3)c(C)nc12`, the Potency was inconclusive: 29.1 µM [inhibitor, single point].
With `Cc1c(N=Cc2cc(Br)cc(Br)c2O)cccc1C(=O)O` the Potency was inconclusive: 20.6 µM [inhibitor, single point].
With `Cc1cc2c(=Cc3ccc(N(C)C)cc3)c3ccccc3n2[n+]1C` the Potency was active: 0.517 µM.
In the case of `O=C(NCc1ccccc1)C1=C[C@@H](C2CCCCC2)C[C@@H](OCc2ccc(CO)cc2)O1`, the Potency is reported as active: 16.4 µM.
With `Nc1nonc1-n1nnc(C(=O)N/N=C/C2CCCCC2)c1-c1ccccc1` the “activity change, negative = growth inhibition” value was inactive: -15%.
With `Cc1nn(CC(C)C)c(Cl)c1C(=O)N(C)CC(=O)Nc1ccc(Cl)cc1` the Potency was inconclusive: 25.9 µM [inhibitor, partial curve, poor fit].
For `C=CCNC(=S)N/N=C/c1ccc(OCc2ccccc2)cc1`, the “activity change, negative = growth inhibition” value was inactive: -6.93%.
With `Cc1ccccc1NC(=O)CCC(=O)OCC(=O)c1ccc(-c2ccccc2)cc1` the Potency was inconclusive: 32.6 µM [inhibitor, single point].
In the case of `COc1cc2cnc(-c3ccsc3)cc2cc1OC`, the Potency is reported as inconclusive: 29.1 µM [inhibitor, single point].
For `Cc1cc(C)cc(-n2ncc3c2CCCC3NC(=O)c2cc(C)n(C)n2)c1` (stereo not given), the Potency was inconclusive: 13 µM [inhibitor, partial curve].
For `CCCN1CCN(S(=O)(=O)c2c(C)[nH]c(C)c2C(=O)N2CCCCC2)CC1`, the “activity change, negative = growth inhibition” value was inactive: -22.5%.
In the case of `CCOCCCNC(=O)CN1C(=O)CCn2nc(-c3cccn3C)cc21`, the “activity change, negative = growth inhibition” value is reported as inactive: 7.93%.
In the case of `CN(CC(=O)Nc1ccc(Cl)c(Cl)c1)C(=O)/C=C/c1ccc(F)cc1`, the “activity change, negative = growth inhibition” value is reported as inactive: -8.86%.
For `CCC1(c2ccc(F)cc2)NC(=O)N(CC(=O)Nc2cccc(S(=O)(=O)N3CCCCC3)c2)C1=O` (stereo not given), the Potency was inconclusive: 16.4 µM [inhibitor, single point].
For `Cc1nc2ccccc2c(=O)n1/N=C/C=C/c1ccccc1`, the Potency was inconclusive: 16.4 µM [inhibitor, partial curve, poor fit].
In the case of `COc1ccccc1NC(=O)C(=O)N/N=C(\C)CC(=O)Nc1ccc(OCc2ccccc2)cc1`, the “activity change, negative = growth inhibition” value is reported as inactive: -26.4%.
For `COc1ccccc1Nc1nc(N)nc(CSc2nc(C)cc(C)n2)n1`, the “activity change, negative = growth inhibition” value was inactive: 32.3%.
With `CN(C)Cc1ccccc1CNC(=O)c1cccc(S(=O)(=O)Nc2ccc3c(c2)OCO3)c1` the “activity change, negative = growth inhibition” value was inactive: -19.5%.
In the case of `COc1ccc(C2=Nc3ccccc3NC(=O)C2N(CCc2ccccc2)C(=O)c2cccs2)cc1` (stereo not given), the Potency is reported as inconclusive: 29.1 µM [inhibitor, single point].
For `N#CCCN1CCN(S(=O)(=O)c2ccc(C3CCCCC3)cc2)CC1`, the Potency was active: 13 µM.
For `CC1CCN(C(=O)C(C)OC(=O)CSc2ccc([N+](=O)[O-])cc2)CC1` (stereo not given), the Potency was inconclusive: 23.1 µM [inhibitor, single point].
With `CC1CCCC(C)N1/N=C/c1ccccc1Br` (stereo not given) the Potency was inconclusive: 11.6 µM [inhibitor, partial curve, poor fit].
In the case of `CCOC(=O)C(Cc1ccccc1)NC(=O)Cn1nnc(-c2ccc(C)cc2)n1` (stereo not given), the “activity change, negative = growth inhibition” value is reported as inactive: -29.8%.
For `COc1ccc(NC(=O)CN2C(=O)C(c3ccccc3)=NC23CCC(C)CC3)cc1Cl` (stereo not given), the Potency was inconclusive: 29.1 µM [inhibitor, single point].
In the case of `COc1ccccc1N1CCN(C2CC(=O)N(c3cccc(Cl)c3)C2=O)CC1` (stereo not given), the “activity change, negative = growth inhibition” value is reported as inactive: -5.11%.
With `CCOc1ccccc1CN1CCN(Cc2csc(C(C)=O)c2)CC1CCO` (stereo not given) the “activity change, negative = growth inhibition” value was inactive: -1.63%.
For `Cc1n[nH]c(=O)c2c(NC(=O)CSc3nncs3)oc(C)c12`, the “activity change, negative = growth inhibition” value was inactive: -0.471%.
In the case of `COc1ccc(-c2[nH]ncc2Oc2ccccc2OC)c(O)c1`, the Potency is reported as inconclusive: 29.1 µM [inhibitor, single point].
